# Data reported in PubChem BioAssay (NCATS).
# Where “and” joins values, the source holds several entries; their conditions need not be identical. Equal values may be shown once. Inconclusive means that the source gave no clear call. Such entries were picked first, then a sample of the others. For part of these data: Potencies beside an inconclusive call are fits to weak or partial responses and may not hold up. For part of these data: A note “side channel” means that the fit belongs to a control or component signal, not to the main read-out. Calls of active or inactive are those of the source. Unless noted, the call rests on the fitted dose curve; in most records, active means well fitted curve in the direction sought with a large enough effect; inconclusive means small, poorly fitted or top-dose-only effect, or another doubt; inactive means no such curve, though single readings can be large; an effect the other way counts as inactive or inconclusive.
# Key:
# [1] = Cell Viability - Mesenchymal (AID 546); conditions: mesenchymal cells viability, qHTS; activity change, negative = cytotoxicity: at 91.7 µM (top of the series);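 further: cells exposed to compound for 40 hours before reading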
# Method in brief: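 Human renal mesenchymal cells (glomerulus-derived), 1000 cells/well, 5 hr 37 °C pre-incubation; compound 40 hr, 37 °C; CellTiter-Glo, 20 min RT; luminescence; AC50 via Hill equation.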
# [2] = molecular target: Peroxisome proliferator-activated receptor delta (Homo sapiens) (UniProt Q03181); assay: qHTS assay for small molecule agonists of peroxisome proliferator-activated receptor delta signaling (AID 588534; calls by dose curve; further: potency means the concentration at half of the fitted maximal effect); conditions: HEK293T PPARdelta-UAS-bla, beta-lactamase ratio, 18 h; activation: at 76.7 µM (top of the series)
# UniProt Q03181, sequence (Q03181 whole entry, looked up): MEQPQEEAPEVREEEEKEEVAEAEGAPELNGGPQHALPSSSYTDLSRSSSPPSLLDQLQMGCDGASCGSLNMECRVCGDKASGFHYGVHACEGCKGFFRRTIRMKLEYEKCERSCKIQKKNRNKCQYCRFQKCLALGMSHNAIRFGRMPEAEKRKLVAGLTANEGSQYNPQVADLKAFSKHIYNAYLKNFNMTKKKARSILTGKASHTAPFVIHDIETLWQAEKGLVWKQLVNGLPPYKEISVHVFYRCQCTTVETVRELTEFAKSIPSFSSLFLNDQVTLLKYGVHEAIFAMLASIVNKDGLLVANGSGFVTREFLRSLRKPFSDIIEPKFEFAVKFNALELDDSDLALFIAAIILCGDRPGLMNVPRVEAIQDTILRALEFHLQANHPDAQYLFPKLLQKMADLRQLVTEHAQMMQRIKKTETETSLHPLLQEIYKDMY
# Method in brief: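 Agonist-mode qHTS; reporter cells, 5 hrs 37 C pre-incubation; compound titration, 18 hrs 37 C; CCF4 dye, 2 hrs RT; fluorescence read. EC50/efficacy via Hill fit.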
# [3] = molecular target: Peroxisome proliferator-activated receptor gamma (Homo sapiens) (UniProt P37231); assay: qHTS assay for small molecule antagonists of peroxisome proliferator-activated receptor gamma signaling (AID 588537; active means well fitted inhibition curve with a large enough effect in the signal ratio, with a control signal flat, not every such curve was filed as active; inconclusive means small, poorly fitted or top-dose-only effect, or effect the other way, or a change in a side signal; the % refers to the signal ratio;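 further: reporter cells co-stimulated with 50 nM rosiglitazone agonist during compound treatment; % of control where 0% means no effect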); conditions: HEK293 PPARg-UAS-bla, beta-lactamase ratio, antagonist mode; at 76.8 µM (top of the series)
# UniProt P37231, sequence (P37231 whole entry, looked up): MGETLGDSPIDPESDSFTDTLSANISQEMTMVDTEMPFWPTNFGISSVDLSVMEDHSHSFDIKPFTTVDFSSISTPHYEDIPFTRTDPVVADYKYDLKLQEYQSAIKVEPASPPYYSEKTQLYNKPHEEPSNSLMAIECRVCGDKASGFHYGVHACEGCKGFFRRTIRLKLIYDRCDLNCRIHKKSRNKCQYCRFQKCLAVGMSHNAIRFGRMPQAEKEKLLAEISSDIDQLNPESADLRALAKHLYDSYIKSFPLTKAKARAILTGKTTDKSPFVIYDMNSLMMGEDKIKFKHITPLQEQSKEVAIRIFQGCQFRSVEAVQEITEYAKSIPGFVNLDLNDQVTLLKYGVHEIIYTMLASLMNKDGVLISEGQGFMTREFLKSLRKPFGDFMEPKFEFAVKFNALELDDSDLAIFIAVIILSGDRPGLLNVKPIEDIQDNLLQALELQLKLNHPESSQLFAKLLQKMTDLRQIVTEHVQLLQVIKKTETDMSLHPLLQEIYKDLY
# Method in brief: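 Fluorescence at 460 and 530 nm (405 nm excitation) reported beta-lactamase cleavage of CCF4 after 2 h room-temperature loading. HEK293 reporter cells in 1% charcoal/dextran-treated FBS had received compound and rosiglitazone for 16 h.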
# [4] = molecular target: Androgen receptor (Homo sapiens) (UniProt P10275); assay: qHTS assay for small molecule agonists of androgen receptor signaling (AID 588515; active means well fitted curve in the direction sought with a large enough effect in the signal ratio, with a control signal flat; inconclusive means small, poorly fitted or top-dose-only effect, or effect the other way, or a change in a side signal; inactive means no such curve, though single readings can be large or run the other way; the % refers to the signal ratio; further: on the % scale 0 is the no-effect control and ±100 the full control effect); conditions: AR-UAS-bla HEK293, beta-lactamase ratio, agonist 16 h; activation: stronger effect = higher value
# UniProt P10275, sequence (P10275 whole entry, looked up): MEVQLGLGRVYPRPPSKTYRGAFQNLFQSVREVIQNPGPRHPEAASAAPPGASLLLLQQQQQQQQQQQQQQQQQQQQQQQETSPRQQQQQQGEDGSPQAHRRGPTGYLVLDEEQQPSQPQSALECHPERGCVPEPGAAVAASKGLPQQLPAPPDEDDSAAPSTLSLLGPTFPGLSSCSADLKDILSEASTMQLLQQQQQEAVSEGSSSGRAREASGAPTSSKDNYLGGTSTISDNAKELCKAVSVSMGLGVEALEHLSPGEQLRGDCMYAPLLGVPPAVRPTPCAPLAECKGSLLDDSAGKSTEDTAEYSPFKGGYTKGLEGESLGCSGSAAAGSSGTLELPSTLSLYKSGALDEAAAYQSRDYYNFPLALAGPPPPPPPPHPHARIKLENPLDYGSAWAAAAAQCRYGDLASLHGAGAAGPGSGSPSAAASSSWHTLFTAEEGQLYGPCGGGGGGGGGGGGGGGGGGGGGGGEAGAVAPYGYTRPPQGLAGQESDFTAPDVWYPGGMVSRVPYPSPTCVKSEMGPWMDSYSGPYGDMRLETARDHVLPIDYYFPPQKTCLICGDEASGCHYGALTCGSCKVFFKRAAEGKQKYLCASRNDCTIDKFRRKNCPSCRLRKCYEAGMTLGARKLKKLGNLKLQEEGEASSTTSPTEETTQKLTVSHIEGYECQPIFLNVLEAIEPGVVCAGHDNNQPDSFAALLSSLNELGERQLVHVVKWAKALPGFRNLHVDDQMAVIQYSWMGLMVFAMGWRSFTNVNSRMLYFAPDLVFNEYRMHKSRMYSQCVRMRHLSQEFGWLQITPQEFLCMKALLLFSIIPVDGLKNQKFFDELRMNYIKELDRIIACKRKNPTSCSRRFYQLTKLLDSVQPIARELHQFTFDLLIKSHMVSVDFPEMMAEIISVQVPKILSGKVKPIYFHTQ
# Method in brief: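 Stimulation of an AR-responsive β-lactamase reporter in GripTite HEK293 cells was measured after 16 h compound exposure at 37 °C, via CCF4 fluorescence after 2 h RT. EC50 from Hill fits, normalized to R1881 at 30 nM.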
# [5] = molecular target: Bile acid receptor (Homo sapiens) (UniProt Q96RI1); assay: qHTS assay for small molecule antagonists of farnesoid X receptor signaling (AID 588526; calls by dose curve; further: potency means the concentration at half of the fitted maximal effect); conditions: HEK293T FXR-UAS-bla, beta-lactamase ratio, antagonist mode; activity change, negative = inhibition: at 76.7 µM (top of the series)
# Method in brief: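 Antagonist mode: titrated compounds tested against chenodeoxycholic acid stimulation (normalized to 50 uM CDCA and DMSO) in GeneBLAzer HEK293T cells for 16 h. Beta-lactamase read by CCF4 fluorescence; IC50 from Hill fits.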
# [6] = qHTS assay for small molecule disruptors of the mitochondrial membrane potential - 5 hr assay (AID 651755; calls by dose curve; further: potency means the concentration at half of the fitted maximal effect; nearly all actives have a fitted effect of over 40% in size); conditions: JC-1-type ratio dye; ratio change, negative = disruption: at 92.2 µM (top of the series)
# Method in brief: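 Read-out: ratiometric Mito-MPS fluorescence, green monomer (ex 490/em 535) vs red mitochondrial aggregate (ex 540/em 590). HepG2 cells treated 5 hr at 37C before 30 min dye loading.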
# [7] = molecular target: 3',5'-cyclic-AMP phosphodiesterase 4B (Homo sapiens) (UniProt Q07343); assay: qHTS Assay for Inhibitors of PDE-IV (AID 607; active means well fitted activation curve with a large enough effect in the main read-out, with a control signal flat, not every such curve was filed as active; inconclusive means small, poorly fitted or top-dose-only effect, or effect the other way, or a change in a side signal; further: potency means the concentration at half of the fitted maximal effect); conditions: HEK293 ACTOne CNG channel cells, membrane potential fluorescence; activation (PDE inhibition): at 22.9 µM (top of the series)
# UniProt Q07343, sequence (Q07343 whole entry, looked up): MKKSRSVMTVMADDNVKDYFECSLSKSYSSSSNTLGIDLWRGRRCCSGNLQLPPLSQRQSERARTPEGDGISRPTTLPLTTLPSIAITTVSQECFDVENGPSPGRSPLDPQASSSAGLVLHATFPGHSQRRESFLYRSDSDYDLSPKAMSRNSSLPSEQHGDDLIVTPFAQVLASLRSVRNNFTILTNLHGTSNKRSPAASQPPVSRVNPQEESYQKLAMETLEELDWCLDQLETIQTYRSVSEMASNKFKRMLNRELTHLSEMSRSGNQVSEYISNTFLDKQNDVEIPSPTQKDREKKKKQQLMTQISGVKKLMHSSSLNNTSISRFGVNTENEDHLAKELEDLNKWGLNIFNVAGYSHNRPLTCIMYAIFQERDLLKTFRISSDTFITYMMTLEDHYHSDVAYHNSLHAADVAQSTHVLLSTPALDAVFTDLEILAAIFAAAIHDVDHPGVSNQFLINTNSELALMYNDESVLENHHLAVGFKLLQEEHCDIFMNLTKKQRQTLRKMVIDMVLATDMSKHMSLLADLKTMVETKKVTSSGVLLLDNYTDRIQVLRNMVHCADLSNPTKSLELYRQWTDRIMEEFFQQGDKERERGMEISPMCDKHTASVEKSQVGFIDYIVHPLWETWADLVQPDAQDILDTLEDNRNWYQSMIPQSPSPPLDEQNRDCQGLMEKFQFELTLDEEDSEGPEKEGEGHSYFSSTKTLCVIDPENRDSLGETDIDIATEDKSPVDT
# Method in brief: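 Cell-based read-out of cAMP via a modified cyclic nucleotide-gated channel and membrane potential dye (535/590 nm) in HEK293 cells expressing PDE4 endogenously. Compounds tested up to 22.9 uM final; 100 uM RO 20-1724 reference.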
# [8] = Cellular Toxicity (caspase-3) HepG2 (AID 654); further: potency means the concentration at half of the fitted maximal effect
# Method in brief: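 Caspase 3/7 activation in HepG2 is measured as rising luminescence after a 16 hr treatment at 37 °C. Values are scaled between DMSO basal and 100 uM tamoxifen, and AC50 is fitted with the Hill equation.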
# [9] = Cellular Toxicity (caspase-3) BJ (AID 658); conditions: Potency: caspase-3 activation; further: potency means the concentration at half of the fitted maximal effect
# Method in brief: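 qHTS, BJ fibroblasts, 1000 cells/well; 5 hr preincubation, 16 hr compound, 37 °C; Caspase-Glo 3/7 reagent, 1 hr RT; luminescence. DMSO = 0%, 10 uM staurosporine = 100%. Hill-equation AC50.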
# [10] = Cellular Toxicity (caspase-3) SK-N-SH (AID 661); conditions: SK-N-SH caspase-3 activation, qHTS, DMSO as zero, staurosporine as full; at 91.7 µM (top of the series);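 further: cells exposed to compound for 16 hours; 0% = DMSO basal and 100% = 10 µM staurosporine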
# Method in brief: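 Cells were seeded and incubated 5 hr at 37 °C, dosed with compound over a concentration range for 16 hr, then given Caspase-Glo 3/7 reagent for 1 hr at room temperature before luminescence reading.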
# [11] = molecular target: Cytochrome P450 3A4 (Homo sapiens) (UniProt P08684); assay: qHTS Assay for Activators of Cytochrome P450 3A4 (AID 885); conditions: recombinant CYP3A4, Luciferin-PPXE luminescence, 60 min; activity change, positive = activation: at 57.1 µM (top of the series); further: potency means the concentration at half of the fitted maximal effect; nearly all actives have a fitted effect of over 65% in size
# UniProt P08684, sequence (P08684 whole entry, looked up): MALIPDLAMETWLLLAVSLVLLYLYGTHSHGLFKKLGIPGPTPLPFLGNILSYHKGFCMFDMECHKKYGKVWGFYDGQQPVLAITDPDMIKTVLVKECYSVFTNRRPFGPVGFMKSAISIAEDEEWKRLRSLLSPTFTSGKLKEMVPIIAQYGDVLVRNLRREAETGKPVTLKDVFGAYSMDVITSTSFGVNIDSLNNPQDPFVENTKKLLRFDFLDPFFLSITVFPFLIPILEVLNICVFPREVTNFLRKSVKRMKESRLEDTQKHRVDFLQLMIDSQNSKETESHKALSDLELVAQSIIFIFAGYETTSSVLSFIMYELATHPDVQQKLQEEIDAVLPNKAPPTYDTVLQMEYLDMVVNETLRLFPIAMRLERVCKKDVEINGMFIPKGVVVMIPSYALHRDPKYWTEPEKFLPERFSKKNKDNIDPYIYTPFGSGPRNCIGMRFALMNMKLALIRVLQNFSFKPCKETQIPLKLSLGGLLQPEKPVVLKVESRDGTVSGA
# Method in brief: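 Luminescent readout of luciferin formed from 25 uM Luciferin-PPXE (KM level) by 20 nM CYP3A4 in 200 mM KPO4, with 60 min NADPH-driven reaction at room temperature after 10 min compound exposure. Ketoconazole (57 uM) defined 100% inhibition.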
# [12] = Cell Viability - LYMP2-023 (AID 975);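 further: potency means the concentration at half of the fitted maximal effect; cells exposed to compound for 24 hours at 37 °C; nearly all actives have a fitted effect of over 55% in size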
# Method in brief: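 Steps: seed 2500 human lymphoblastoid cells per well, incubate 5 hr at 37 C, add compound for 24 hr at 37 C, add CellTiter-Glo, hold 30 min at room temperature, read luminescence. AC50 derived by Hill modelling.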
# [13] = Cellular Toxicity (caspase-3) MRC-5 (AID 659); conditions: Potency: caspase-3 activation;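 further: 0% = DMSO basal and 100% = 10 µM staurosporine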
# Method in brief: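 MRC-5 fibroblasts, 1500/well; 16 h cpd, 37 °C; Caspase-Glo 3/7, 1 h RT; lumi read. Norm: DMSO = 0%, 10 uM staurosporine = 100%. Hill-fit AC50 from qHTS conc-response.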
# [14] = Cellular Toxicity (caspase-3) Hek293 (AID 664); conditions: HEK293 caspase-3 activation, DMSO = 0%, 100 µM tamoxifen = 100%; at 92.2 µM (top of the series);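 further: cells exposed to compound for 16 h at 37 °C before readout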
# Method in brief: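 qHTS, HEK293 (human embryonic kidney), 16 h cpd exposure in complete medium. Caspase-3/7 activation = luminescence increase; normalized to DMSO/100 uM tamoxifen; Hill-fit AC50.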
# [15] = Cellular Toxicity (caspase-3) NIH 3T3 (AID 666);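 further: caspase signal read after 16 h compound exposure; 0% = DMSO basal and 100% = 100 µM tamoxifen stimulation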
# Method in brief: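 Cells were plated at 1000 per well and incubated 5 hr at 37°C, then compound was added for 16 hr. Caspase-Glo 3/7 reagent followed for 20 min at room temperature before luminescence was read.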
# [16] = MultiTox-Fluor Cytotoxicity Assay - LYMP1-001 - Live Cells (AID 947); further: potency means the concentration at half of the fitted maximal effect
# CP297 = assay: qHTS profiling for inhibitors of Plasmodium falciparum proliferation (AID 504749);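 further: 0% = DMSO vehicle and full inhibition = artemisinin control; nearly all actives have a fitted effect of over 60% in size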; conditions: P. falciparum in erythrocytes, SYBR Green DNA, 72 h; series mostly up to 28.7 µM
# Method in brief: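 Each compound contacts P. falciparum-infected red blood cells for 72 h at 37 C; lysis buffer (Tris, EDTA, saponin, Triton X, SYBR Green I) is added and fluorescence measured next morning; values normalized to controls.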
# Tags describe the fitted curve by direction and shape or compound fluorescence and quenching.
smiles,measurement,setting,value
c1ccc2c(c1)-c1cccc3cccc-2c13,Potency,[1],inactive
same,Potency,[2],"inconclusive: 44.7 µM [fluorescent, side channel, partial curve, poor fit]"
same,"activity, negative = inhibition",[3],inactive: 1.28%
Cc1cc(N=Nc2ccccc2C)ccc1N,"activity change, negative = cytotoxicity",[1],inconclusive: -46.5%
same,activation,[4],inconclusive: -35.3% and inactive: -4.45%
same,Potency,[5],"inconclusive: 31.6 µM [inhibitor, partial curve]"
same,Potency,[6],"inconclusive: 42.2 µM [inhibitor, partial curve]"
CC1(C)N(O)C(c2ccc(C(=O)O)cc2)=[N+]([O-])C1(C)C,Potency,[7],"inconclusive: 12 µM [inhibitor, partial curve, poor fit]"
O=[N+]([O-])c1cc(C(F)(F)F)cc([N+](=O)[O-])c1Cl,Potency,[8],"inconclusive: 31.6 µM [rising, single point]"
same,Potency,[9],"inconclusive: 31.6 µM [rising, single point]"
same,caspase-3 activation,[10],inconclusive: -2.75%
same,Potency,[11],"inconclusive: 25.1 µM [activator, partial curve]"
same,Potency,[12],active: 39.8 µM
O=C(O)C(Br)CBr (stereo not drawn),Potency,[13],inactive
[O]=[Cd],caspase-3 activation,[14],inactive: -0.103%
ClCC1CO1 (stereo not drawn),Potency,[15],inactive
same,Potency,[16],"inconclusive: 5.01 µM [cytotoxic, full curve, poor fit]"
same,Potency,CP297,inactive
